Common to all, as to assay: glycan array binding signal (z-score within array); higher = stronger binding
Settings in all cases: glycan notation: IUPAC condensed, linker removed

The test system of assay [1] is GlcNAc(b1-3)Gal(b1-4)GlcNAc(b1-3)Gal(b1-4)GlcNAc(b1-3)Gal(b1-4)GlcNAc(b1-3)Gal(b1-4)GlcNAc(b1-2)[GlcNAc(b1-3)Gal(b1-4)GlcNAc(b1-3)Gal(b1-4)GlcNAc(b1-3)Gal(b1-4)GlcNAc(b1-3)Gal(b1-4)GlcNAc(b1-6)]Man(a1-6)[GlcNAc(b1-3)Gal(b1-4)GlcNAc(b1-3)Gal(b1-4)GlcNAc(b1-3)Gal(b1-4)GlcNAc(b1-3)Gal(b1-4)GlcNAc(b1-2)Man(a1-3)]Man(b1-4)GlcNAc(b1-4)[Fuc(a1-6)]GlcNAc. The gist of the method: (§1)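 Negative Z-scores can be read as non-binding. The Z-score is calculated within each array and then averaged across arrays of one protein sequence at different concentrations or buffers and across linkers. Arrays, 3228 in all, were curated from the Consortium for Functional Glycomics database and kept only where the protein sequence was available.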

Assay [2] concerns GlcNAc(b1-3)Gal. A digest of the protocol:
as §1

Assay [3] deals with GlcNAc(b1-3)GalNAc. A digest of the protocol:
as §1

For assay [4], the system named is GlcNAc(b1-3)Gal(b1-4)GlcNAc. A digest of the protocol: as §1
In assay [5] the test system is GlcNAc(b1-3)[GlcNAc(b1-4)][GlcNAc(b1-6)]GlcNAc. A digest of the protocol: as §1
Assay [6] has as its system GlcNAc(b1-3)Gal(b1-4)GlcNAc(b1-3)Gal(b1-4)GlcNAc(b1-3)Gal(b1-4)GlcNAc(b1-3)Gal(b1-4)GlcNAc(b1-2)Man(a1-3)[GlcNAc(b1-3)Gal(b1-4)GlcNAc(b1-3)Gal(b1-4)GlcNAc(b1-3)Gal(b1-4)GlcNAc(b1-3)Gal(b1-4)GlcNAc(b1-2)Man(a1-6)]Man(b1-4)GlcNAc(b1-4)GlcNAc. A digest of the protocol: as §1
Assay [7] relates to GlcNAc(b1-3)Gal(b1-4)GlcNAc(b1-3)Gal(b1-4)GlcNAc(b1-3)Gal(b1-4)GlcNAc(b1-3)Gal(b1-4)GlcNAc(b1-2)Man(a1-3)[GlcNAc(b1-3)Gal(b1-4)GlcNAc(b1-3)Gal(b1-4)GlcNAc(b1-3)Gal(b1-4)GlcNAc(b1-3)Gal(b1-4)GlcNAc(b1-2)Man(a1-6)]Man(b1-4)GlcNAc(b1-4)[Fuc(a1-6)]GlcNAc. The gist of the method:
as §1

For assay [8], the system named is GlcNAc(b1-3)Gal(b1-4)GlcNAc(b1-3)Gal(b1-4)GlcNAc. The gist of the method:
as §1

The subject of assay [9] is GlcNAc(b1-3)Gal(b1-4)Glc. The gist of the method: as §1
In assay [10] the test system is GlcNAc(b1-3)[GlcNAc(b1-6)]Gal(b1-4)GlcNAc. The gist of the method: as §1

Many of the other results were omitted from the sample, so the strongest signals are more common in it than they were.

With “Thrombomodulin Extracellular (Homo sapiens) (chain not printed)”, the “glycan array binding signal (z-score)” value in [1] was 3.09; in [2], -0.293.
On to “M-Ficolin A256V (Homo sapiens) (chain not printed)”, for which, in assay [3], the “glycan array binding signal (z-score)” value was -0.159.
Turning to “Serum Amyloid P component (Homo sapiens) (chain not printed)”, the “glycan array binding signal (z-score)” value in assay [4] was -0.34; in assay [3], 0.193; in assay [5], -0.323.
“Gal 3 (Homo sapiens) (chain not printed)”: the “glycan array binding signal (z-score)” value in assay [6] was 3.94; in [7] it was 6.09; in assay [2], -0.318.
Consider MBP (Homo sapiens) (chain not printed), for which the “glycan array binding signal (z-score)” value in assay [6] was 8.18; in assay [7], 9.18; in assay [1], 6.24; in [5], 3.71.
On to “M-Ficolin G221F A256V (Homo sapiens) (chain not printed)”, for which the “glycan array binding signal (z-score)” value in assay [2] is -0.317.
“Gal 8 long (Homo sapiens) (chain not printed)”: in [3], the “glycan array binding signal (z-score)” value was -0.294.
For “NCAM1 (Homo sapiens) (chain not printed)”, in [2], the “glycan array binding signal (z-score)” value amounted to 0.04.
Turning to “Meso764 (Homo sapiens) (chain not printed)”, the “glycan array binding signal (z-score)” value was -0.011 in assay [6], -0.273 in assay [8] and 0.168 in assay [5].
On to “Siglec-2 (Homo sapiens) (chain not printed)”, for which the “glycan array binding signal (z-score)” value in assay [4] is -0.097; in assay [9] it was 0.1; in assay [3], -0.206.
Turning to “Gal 8-short (Homo sapiens) (chain not printed)”, the “glycan array binding signal (z-score)” value is 1.59 in assay [8] and -0.822 in assay [10].
Take FGF2 (chain not printed): the “glycan array binding signal (z-score)” value in [10] is -0.167.
In the case of “STIM-3 (Mus musculus) (chain not printed)”, in assay [5], the “glycan array binding signal (z-score)” value came to 2.32.

(Values after the supplement of paper PMC8728848.)
